# Over roughly 110,000 compounds, “z-score” has its median near -0.1; the highest 2% begin near 2. The list shows a part of the results.
# Molecular target: Metabotropic glutamate receptor 8 (Rattus norvegicus) (UniProt P70579)
# Assay: rat mGluR8 modulators via GIRK flux, primary screen, cell-based, thallium flux, HTS (AID 488969)
# Conditions: HEK293 rat mGluR8, GIRK (G protein-gated inwardly rectifying potassium channel) thallium flux, FluoZin2; at 10 µM; stronger effect = higher value; submaximal glutamate (EC20) added with thallium
# UniProt P70579, sequence (P70579 whole entry, looked up): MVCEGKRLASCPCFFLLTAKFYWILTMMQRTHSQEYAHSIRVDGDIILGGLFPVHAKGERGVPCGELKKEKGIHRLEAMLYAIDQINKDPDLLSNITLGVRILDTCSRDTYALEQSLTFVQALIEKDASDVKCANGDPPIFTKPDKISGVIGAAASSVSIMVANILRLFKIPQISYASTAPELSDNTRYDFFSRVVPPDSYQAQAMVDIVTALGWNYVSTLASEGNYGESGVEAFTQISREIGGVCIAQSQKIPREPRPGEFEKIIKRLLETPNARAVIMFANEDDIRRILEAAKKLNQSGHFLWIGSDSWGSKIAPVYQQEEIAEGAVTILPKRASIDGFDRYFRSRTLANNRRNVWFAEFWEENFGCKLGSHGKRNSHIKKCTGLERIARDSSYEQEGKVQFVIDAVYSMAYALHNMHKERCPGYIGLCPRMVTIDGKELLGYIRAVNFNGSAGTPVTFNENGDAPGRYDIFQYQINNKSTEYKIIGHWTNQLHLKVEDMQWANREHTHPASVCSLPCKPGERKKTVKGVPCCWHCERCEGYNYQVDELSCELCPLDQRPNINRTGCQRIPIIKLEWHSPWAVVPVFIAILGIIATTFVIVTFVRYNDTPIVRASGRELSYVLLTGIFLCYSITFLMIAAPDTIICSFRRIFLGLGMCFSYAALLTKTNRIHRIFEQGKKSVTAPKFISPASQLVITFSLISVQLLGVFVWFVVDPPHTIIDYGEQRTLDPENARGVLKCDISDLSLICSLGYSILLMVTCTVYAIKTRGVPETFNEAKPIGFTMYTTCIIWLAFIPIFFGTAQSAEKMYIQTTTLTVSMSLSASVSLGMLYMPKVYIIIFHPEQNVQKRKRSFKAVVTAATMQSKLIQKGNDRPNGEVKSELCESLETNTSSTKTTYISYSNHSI
row,SMILES,z-score
1,CCOC(=O)N1CCN(C(=O)CN(Cc2ccccc2)S(=O)(=O)c2ccc(OC)c(Cl)c2)CC1,-0.545
2,COc1ccc2nc(NC(=O)c3cccc(-c4cc5ccccc5oc4=O)c3)sc2c1,0.372
3,COc1ccc(-n2c(C)nc3cc(C(=O)N4CCOCC4)ccc32)cc1,0.377
4,N=C1C=CC=C2C1=NC1(CCCCC1)N2O,1.08
5,CC(C)(C)N/N=C/c1c(O)n(-c2ccc(Cl)cn2)c(=O)c2ccccc12,-0.269
6,COc1ccc(NC(=O)c2sc(Cl)nc2-c2ccccc2)cc1,-0.514
7,Cc1cc(C)n(Cc2ccc(NC(=O)c3ccc(COc4ccccc4Br)cc3)cc2)n1,-0.0999
8,O=C(c1ccc(Cl)cc1)N1CCN(c2ccc([N+](=O)[O-])c(NCc3cccnc3)c2)CC1,-0.47
9,CC[n+]1c(/C=C/N(C)c2ccccc2)oc2ccccc21,-0.248
10,O=C(O)c1ccc(S(=O)(=O)Nc2ccc(F)c(Cl)c2)cc1,0.217
11,CCOC(=O)c1nc2nc(-c3cccs3)cc(C(F)(F)F)n2n1,-0.035
12,O=C(NCc1ccccc1)c1cnsn1,-0.0655
13,COc1ccc(C)cc1S(=O)(=O)N(C)CC(=O)Nc1ccc2c(c1)OCO2,0.0122
14,CCc1ccc2c(c1)C(NC(C)=O)C(=O)N2CC (stereo not given),0.0709
15,O=[N+]([O-])c1ccccc1/C=N/N1CCN(c2ccncc2S(=O)(=O)N2CCCCC2)CC1,-0.0221
16,CN(C)S(=O)(=O)c1cccn1-c1ncc(C(F)(F)F)cc1Cl,-0.0754
17,COc1ccccc1NC(=O)C1=C(C)Nc2nnnn2C1c1cccc(C)c1 (stereo not given),-0.502
18,Cc1nn(CCOc2ccccc2)c(=O)n1-c1ccccc1F,0.112
19,COc1ccccc1NS(=O)(=O)c1ccc2c(c1)n(C)c(=O)n2C,-0.217
20,CCOC(=O)Cn1nc(-c2ccc(F)cc2)oc1=O,-0.119
21,Cc1oc(=O)c(NC(=O)c2cccc(Cl)c2)cc1C(=O)c1ccccc1,0.0257
22,COc1ccc(CNC(=O)C(C)N=C2NS(=O)(=O)c3ccccc32)cc1OC (stereo not given),-0.127
23,COc1cc2c(-c3ccccc3O)nc3c(c(C)nn3-c3ccccc3)c2cc1OC,-0.0428
24,Cc1cc(N2CCOCC2)nc(NCc2ccccc2)n1,-0.0745

row,SMILES,z-score
1,O=C(Nc1nnc(CSCc2ccc(F)cc2)s1)c1cccc([N+](=O)[O-])c1,-0.37
2,CC1CN(S(=O)(=O)c2cccc(C(=O)NCCCn3ccnc3)c2)CC(C)O1 (stereo not given),0.0312
3,Fc1ccccc1OCCCCn1cncn1,0.576
4,CCOC(=O)c1csc(NC(=O)Nc2cccc(OC)c2)n1,0.576
5,CC(C)(C)C(=O)O/N=C1/C(=O)N(c2ccccc2)c2ccccc21,-0.251
6,CC1Cc2nc(SCC(=O)Nc3nccs3)n(Cc3ccccc3)c(=O)c2S1 (stereo not given),0.762
7,C=CCn1c(C)cc(C)c(C#N)c1=O,0.181
8,COc1ccc(OC)c(S(=O)(=O)N2CCCC(C)C2)c1 (stereo not given),0.133
9,Cc1cc(NC(=O)CSc2nnc(C)c(=O)[nH]2)no1,-0.167
10,CCn1c(SCC(N)=O)nc2c1c(=O)n(C)c(=O)n2C,-0.15
11,CC(=O)c1ccc(N2CCN(c3ccc(S(=O)(=O)N4CCN(C)CC4)cn3)CC2)cc1,0.275
12,Cc1cc(NC(=O)C2CC2)ncc1NC(=O)C12CC3CC(CC(C3)C1)C2,-0.0511
13,COc1ccc(-c2c(C#N)c(N)nc3c2CCc2ccccc2-3)cc1OC,-0.362
14,CCOc1ccc(-c2nnn(CC(=O)NCc3ccco3)n2)cc1OCC,0.241
15,CCOC(=O)c1ccc2[nH]c(C)c(CN3CCN(C)CC3)c(=O)c2c1,-0.371
16,Cc1nc2sc(C(c3cccs3)N3CC(C)CC(C)C3)c(O)n2n1 (stereo not given),-0.461
17,COC(=O)c1cc2c(=O)n3ccccc3nc2n(C(C)C)c1=N,0.239
18,CCn1ccc(C(=O)Nc2ccc(Cl)cn2)n1,0.0101
19,CN1C(=O)NC(NC(=O)c2ccncc2)(C(F)(F)F)C1=O (stereo not given),-0.0497
20,CCOc1cc(C(=S)N2CCCCC2)ccc1OS(=O)(=O)c1ccc(Cl)cc1,-0.121
21,CC1=C(C(=O)Nc2cccc(F)c2)C(c2ccsc2)C2=C(CC(C)(C)CC2=O)N1 (stereo not given),0.0448
22,O=C(Cc1ccccc1Cl)NCCCn1ccnc1,0.286
23,Cc1ccccc1-n1c(SCC(N)=O)nc2sc(-c3ccccc3)cc2c1=O,0.617
24,CCOc1ccc(N(C(=O)c2cnsn2)C(C(=O)NC2CCCCC2)c2ccncc2)cc1 (stereo not given),-0.064

row,SMILES,z-score
1,CC1C(=O)CCC1(C(=O)O)c1ccccc1 (stereo not given),0.225
2,N#Cc1c(NC(=O)Cn2c(=O)oc3ccccc32)oc(-c2ccccc2)c1-c1ccccc1,-0.679
3,COc1cc(CN2C(=S)NC(C)(C)CC2(C)O)cc(OC)c1 (stereo not given),-0.155
4,O=C(CN1CCN(S(=O)(=O)c2ccccc2)CC1)Nc1cccc(C(F)(F)F)c1,-0.142
5,O=c1oc2ccccc2cc1-c1cn2cccnc2n1,0.341
6,COCCNC(=S)N1CCOCC1,-0.306
7,Cc1nc(N2CCOCC2)nc(N2CCN(c3ccccc3)CC2)c1[N+](=O)[O-],-0.205
8,O=C1C2CC=CCC2C(=O)N1c1ccc(NCCc2ccc(Cl)cc2)c([N+](=O)[O-])c1 (stereo not given),-0.122
9,CC(=C/c1ccccc1)/C=N/NC(=O)c1cnccn1,-0.176
10,Cc1c(OCC(F)(F)F)ccnc1CSc1nc2ccccc2[nH]1,-0.223
11,CCOC(=O)c1c(C)n(OCc2ccccc2)c2ccc3nonc3c12,-0.0507
12,CCOC(=O)c1c(C)nc2sc3c(=O)n(-c4ccc(C(C)=O)cc4)nnc3c2c1-c1ccc(OC)cc1,-0.306
13,Oc1ccc2ccccc2c1/C=N/Nc1nnc(-c2ncc[nH]2)c2ccccc12,-0.336
14,CCCCCOC(=O)Cc1c(C)nc(-c2ccccc2)[nH]c1=O,-1.01
15,CCc1ccccc1NC(=O)c1ccc(NCCc2ccccc2)c([N+](=O)[O-])c1,-1
16,Cc1cc(C)nc(SCc2nnc(SCC(=O)Nc3c(C)cccc3C)o2)n1,-0.101
17,CN1CCN(NC(=S)NC2CCCCC2)CC1,-0.11
18,CCOC(=O)c1ccccc1NS(=O)(=O)c1ccc(C)cc1,0.251
19,CC(OC(=O)CCc1nc2ccccc2[nH]c1=O)C(=O)c1ccccc1 (stereo not given),-0.532
20,COC(=O)c1ccc(C(=O)OC)c(NC(=O)CN(C)Cc2cccc(Cl)c2Cl)c1,-0.099
21,CCn1c(SCC(=O)N2CCN(c3ccc(Cl)cc3)CC2)nc2ccccc2c1=O,-0.224
22,COc1ccc(C(=O)NCC(c2ccc(F)cc2)N2CCOCC2)cc1S(=O)(=O)N1CCCC1 (stereo not given),-0.0294

# Source: PubChem BioAssay AID488969 (Vanderbilt High Throughput Screening Facility, 2010)
